What follows are compounds tested on Blumeria graminis f. sp. tritici (Erysiphe graminis f. sp. tritici) (assay: Example A4: Blumeria graminis f. sp. tritici / wheat / leaf disc preventative (powdery mildew on wheat)). Details: foliar, read-out: control of Blumeria graminis f. sp. tritici.
Source text: Example A4: Blumeria Graminis F. Sp. Tritici (Erysiphe Graminis F. Sp. Tritici) / Wheat / Leaf Disc Preventative (Powdery Mildew On Wheat)
Wheat leaf segments cv. […] The leaf disks are inoculated by shaking powdery mildew infected plants above the test plates 1 day after application.

Row | Compound | pest or weed control at 200 ppm
1 | Cc1sc(N(C(=O)CC(F)(F)F)c2cc(F)nc(F)c2)nc1C(=O)NC1CCC1(C)C (stereo not drawn) [X.21, 2-[(2,6-difluoro-4-pyridyl)-(3,3,3-trifluoropropanoyl)amino]-N-(2,2-dimethylcyclobutyl)-5-methyl-thiazole-4-carboxamide] | ≥ 80%
2 | Cc1sc(N(C(=O)Cc2ccccc2)c2cc(F)nc(F)c2)nc1C(=O)NC1CCC1(C)C (stereo not drawn) [X.09, 2-[(2,6-difluoro-4-pyridyl)-(2-phenylacetyl)amino]-N-(2,2-dimethylcyclobutyl)-5-methyl-thiazole-4-carboxamide] | ≥ 80%
3 | Cc1sc(N(C(=O)c2cccs2)c2cc(F)nc(F)c2)nc1C(=O)NC1CCC1(C)C (stereo not drawn) [X.31, 2-[(2,6-difluoro-4-pyridyl)-(thiophene-2-carbonyl)amino]-N-(2,2-dimethylcyclobutyl)-5-methyl-thiazole-4-carboxamide] | ≥ 80%
4 | CCOC(=O)N(c1cc(F)nc(F)c1)c1nc(C(=O)NC2CCC2(C)C)c(C)s1 (stereo not drawn) [X.30, ethyl N-(2,6-difluoro-4-pyridyl)-N-[4-[(2,2-dimethylcyclobutyl)carbamoyl]-5-methyl-thiazol-2-yl]carbamate] | ≥ 80%
5 | CCOCC(=O)N(c1cc(F)nc(F)c1)c1nc(C(=O)NC2CCC2(C)C)c(C)s1 (stereo not drawn) [X.15, 2-[(2,6-difluoro-4-pyridyl)-(2-ethoxyacetyl)amino]-N-(2,2-dimethylcyclobutyl)-5-methyl-thiazole-4-carboxamide] | ≥ 80%
6 | CC(=O)OCC(=O)N(c1cc(F)nc(F)c1)c1nc(C(=O)NC2CCC2(C)C)c(C)s1 (stereo not drawn) [X.08, [2-[(2,6-difluoro-4-pyridyl)-[4-[(2,2-dimethylcyclobutyl)carbamoyl]-5-methyl-thiazol-2-yl]amino]-2-oxo-ethyl] acetate] | ≥ 80%
7 | COC(=O)N(c1cc(F)nc(F)c1)c1nc(C(=O)NC2CCC2(C)C)c(C)s1 (stereo not drawn) [X.32, methyl N-(2,6-difluoro-4-pyridyl)-N-[4-[(2,2-dimethylcyclobutyl)carbamoyl]-5-methyl-thiazol-2-yl]carbamate] | ≥ 80%
8 | CC(=O)OC(C)C(=O)N(c1cc(F)nc(F)c1)c1nc(C(=O)NC2CCC23CCCC3)c(C)s1 (stereo not drawn) [X.01, [2-[(2,6-difluoro-4-pyridyl)-[5-methyl-4-(spiro[3.4]octan-3-ylcarbamoyl)thiazol-2-yl]amino]-1-methyl-2-oxo-ethyl] acetate] | ≥ 80%
9 | Cc1sc(N(C=O)c2cc(F)nc(F)c2)nc1C(=O)NC1CCC1(C)C (stereo not drawn) [X.33, 2-[(2,6-difluoro-4-pyridyl)-formyl-amino]-N-(2,2-dimethylcyclobutyl)-5-methylthiazole-4-carboxamide] | ≥ 80%
10 | Cc1sc(N(C(=O)C(C)C)c2cc(F)nc(F)c2)nc1C(=O)NC1CCC1(C)C (stereo not drawn) [X.38, 2-[(2,6-difluoro-4-pyridyl)-(2-methylpropanoyl)amino]-N-(2,2-dimethylcyclobutyl)-5-methyl-thiazole-4-carboxamide] | ≥ 80%
11 | CC(=O)N(c1cc(F)nc(F)c1)c1nc(C(=O)NC2CCC2(C)C)c(C)s1 (stereo not drawn) [X.36, 2-[acetyl-(2,6-difluoro-4-pyridyl)amino]-N-(2,2-dimethylcyclobutyl)-5-methylthiazole-4-carboxamide] | ≥ 80%
12 | COC(C)C(=O)N(c1cc(F)nc(F)c1)c1nc(C(=O)NC2CCC2)c(C)s1 (stereo not drawn) [X.07, N-cyclobutyl-2-[(2,6-difluoro-4-pyridyl)-(2-methoxypropanoyl)amino]-5-methylthiazole-4-carboxamide] | ≥ 80%
13 | COc1sc(N(C(C)=O)c2cc(F)nc(F)c2)nc1C(=O)NC1CCC12CCCC2 (stereo not drawn) [X.10, 2-[acetyl-(2,6-difluoro-4-pyridyl)amino]-5-methoxy-N-spiro[3.4]octan-3-yl-thiazole-4-carboxamide] | ≥ 80%
14 | CC(=O)N(c1cc(F)nc(F)c1)c1nc(C(=O)NC2CCC2)c(C)s1 [X.13, 2-[acetyl-(2,6-difluoro-4-pyridyl)amino]-N-cyclobutyl-5-methyl-thiazole-4-carboxamide] | ≥ 80%
15 | CCOC(=O)OC(C)C(=O)N(c1cc(F)nc(F)c1)c1nc(C(=O)NC2CCC23CCCC3)c(C)s1 (stereo not drawn) [X.04, [2-[(2,6-difluoro-4-pyridyl)-[5-methyl-4-(spiro[3.4]octan-3-ylcarbamoyl)thiazol-2-yl]amino]-1-methyl-2-oxo-ethyl] ethyl carbonate] | ≥ 80%
16 | COC(=O)CC(=O)N(c1cc(F)nc(F)c1)c1nc(C(=O)NC2CCC2(C)C)c(C)s1 (stereo not drawn) [X.18, methyl 3-[(2,6-difluoro-4-pyridyl)-[4-[(2,2-dimethylcyclobutyl)carbamoyl]-5-methyl-thiazol-2-yl]amino]-3-oxo-propanoate] | ≥ 80%
17 | Cc1sc(N(C(=O)CF)c2cc(F)nc(F)c2)nc1C(=O)NC1CCC1(C)C (stereo not drawn) [X.27, 2-[(2,6-difluoro-4-pyridyl)-(2-fluoroacetyl)amino]-N-(2,2-dimethylcyclobutyl)-5-methyl-thiazole-4-carboxamide] | ≥ 80%

Row | Compound | pest or weed control at 200 ppm
18 | COC(=O)OC(C)C(=O)N(c1cc(F)nc(F)c1)c1nc(C(=O)NC2CCC23CCCC3)c(C)s1 (stereo not drawn) [X.03, [2-[(2,6-difluoro-4-pyridyl)-[5-methyl-4-(spiro[3.4]octan-3-ylcarbamoyl)thiazol-2-yl]amino]-1-methyl-2-oxo-ethyl] methyl carbonate] | ≥ 80%
19 | Cc1sc(N(C(=O)COCc2ccccc2)c2cc(F)nc(F)c2)nc1C(=O)NC1CCC1(C)C (stereo not drawn) [X.14, 2-[(2-benzyloxyacetyl)-(2,6-difluoro-4-pyridyl)amino]-N-(2,2-dimethylcyclobutyl)-5-methyl-thiazole-4-carboxamide] | ≥ 80%
20 | COCC(=O)N(c1cc(F)nc(F)c1)c1nc(C(=O)NC2CCC2)c(C)s1 [X.12, N-cyclobutyl-2-[(2,6-difluoro-4-pyridyl)-(2-methoxyacetyl)amino]-5-methyl-thiazole-4-carboxamide] | ≥ 80%
21 | CCOC(=O)C(=O)N(c1cc(F)nc(F)c1)c1nc(C(=O)NC2CCC2(C)C)c(C)s1 (stereo not drawn) [X.34, ethyl 2-[(2,6-difluoro-4-pyridyl)-[4-[(2,2-dimethylcyclobutyl)carbamoyl]-5-methyl-thiazol-2-yl]amino]-2-oxo-acetate] | ≥ 80%
22 | Cc1sc(N(C(=O)c2ccco2)c2cc(F)nc(F)c2)nc1C(=O)NC1CCC1(C)C (stereo not drawn) [X.19, 2-[(2,6-difluoro-4-pyridyl)-(furan-2-carbonyl)amino]-N-(2,2-dimethylcyclobutyl)-5-methyl-thiazole-4-carboxamide] | ≥ 80%
23 | COCCOC(=O)N(c1cc(F)nc(F)c1)c1nc(C(=O)NC2CCC2(C)C)c(C)s1 (stereo not drawn) [X.28, 2-methoxyethyl N-(2,6-difluoro-4-pyridyl)-N-[4-[(2,2-dimethylcyclobutyl)carbamoyl]-5-methyl-thiazol-2-yl]carbamate] | ≥ 80%
24 | Cc1sc(N(C(=O)Oc2ccccc2)c2cc(F)nc(F)c2)nc1C(=O)NC1CCC1(C)C (stereo not drawn) [X.26, phenyl N-(2,6-difluoro-4-pyridyl)-N-[4-[(2,2-dimethylcyclobutyl)carbamoyl]-5-methyl-thiazol-2-yl]carbamate] | ≥ 80%
25 | COCC(=O)N(c1cc(F)nc(F)c1)c1nc(C(=O)NC2CCC2(C)C)c(C)s1 (stereo not drawn) [X.29, 2-[(2,6-difluoro-4-pyridyl)-(2-methoxyacetyl)amino]-N-(2,2-dimethylcyclobutyl)-5-methyl-thiazole-4-carboxamide] | ≥ 80%
26 | COC(=O)CCC(=O)N(c1cc(F)nc(F)c1)c1nc(C(=O)NC2CCC2(C)C)c(C)s1 (stereo not drawn) [X.23, methyl 4-[(2,6-difluoro-4-pyridyl)-[4-[(2,2-dimethylcyclobutyl)carbamoyl]-5-methyl-thiazol-2-yl]amino]-4-oxo-butanoate] | ≥ 80%
27 | CC(=O)N(c1cc(F)nc(F)c1)c1nc(C(=O)NC2CCC23CCCC3)c(C)s1 (stereo not drawn) [X.37, 2-[acetyl-(2,6-difluoro-4-pyridyl)amino]-5-methyl-N-spiro[3.4] octan-3-yl-thiazole-4-carboxamide] | ≥ 80%
28 | Cc1sc(N(C(=O)CCl)c2cc(F)nc(F)c2)nc1C(=O)NC1CCC1(C)C (stereo not drawn) [X.17, 2-[(2-chloroacetyl)-(2,6-difluoro-4-pyridyl)amino]-N-(2,2-dimethylcyclobutyl)-5-methyl-thiazole-4-carboxamide] | ≥ 80%
29 | Cc1sc(N(C(=O)C2CC2)c2cc(F)nc(F)c2)nc1C(=O)NC1CCC1(C)C (stereo not drawn) [X.24, 2-[cyclopropanecarbonyl-(2,6-difluoro-4-pyridyl)amino]-N-(2,2-dimethylcyclobutyl)-5-methyl-thiazole-4-carboxamide] | ≥ 80%
30 | Cc1sc(N(C(=O)C(C)O)c2cc(F)nc(F)c2)nc1C(=O)NC1CCC12CCCC2 (stereo not drawn) [X.05, 2-[(2,6-difluoro-4-pyridyl)-(2-hydroxypropanoyl)amino]-5-methyl-N-spiro[3.4]octan-3-yl-thiazole-4-carboxamide] | ≥ 80%
31 | CCOC(=O)OC(C)C(=O)N(c1cc(F)nc(F)c1)c1nc(C(=O)NC2CCC2)c(C)s1 (stereo not drawn) [X.02, [2-[[4-(cyclobutylcarbamoyl)-5-methyl-thiazol-2-yl]-(2,6-difluoro-4-pyridyl)amino]-1-methyl-2-oxo-ethyl] ethyl carbonate] | ≥ 80%
32 | CCN(CC)C(=O)N(c1cc(F)nc(F)c1)c1nc(C(=O)NC2CCC2(C)C)c(C)s1 (stereo not drawn) [X.16, 2-[diethylcarbamoyl-(2,6-difluoro-4-pyridyl)amino]-N-(2,2-dimethylcyclobutyl)-5-methyl-thiazole-4-carboxamide] | ≥ 80%
33 | Cc1sc(N(C(=O)c2ccccc2)c2cc(F)nc(F)c2)nc1C(=O)NC1CCC1(C)C (stereo not drawn) [X.35, 2-[benzoyl-(2,6-difluoro-4-pyridyl)amino]-N-(2,2-dimethylcyclobutyl)-5-methylthiazole-4-carboxamide] | ≥ 80%

From patent US20230270114A1, “FUNGICIDAL COMPOSITIONS” (SYNGENTA CROP PROTECTION AG, priority 2020, published 2023)
